{
  "source": "PubChem BioAssay AID1379",
  "about": "(National Center for Advancing Translational Sciences (NCATS), 2008)",
  "note": "Where “and” joins values, the source holds several entries; their conditions need not be identical. Identical values can stand only once. In all, about 200,000 compounds went through this assay and about 560 (0.28%) were called active. The inconclusive results got no clear call from the source; some entries with a clear call stand among them for comparison. Calls follow the shape of the dose curve; as a rule, active = well fitted inhibition curve with a large enough effect; inconclusive = small, poorly fitted or top-dose-only effect; inactive = flat fitted curve, though single readings scatter. Potencies beside an inconclusive call are fits to weak or partial responses and may not hold up. % is scaled to controls: 0 for no effect and ±100 for the full control effect; potency is read from the fitted curve at half-maximal effect; tags tell the direction and shape of the fitted curve.",
  "data": [
    {"molecular_target": "Luciferin 4-monooxygenase (Photuris pensylvanica) (UniProt Q27757)", "experiment": "Counterscreen for Luciferase (Kinase-Glo TM) Inhibition; also: nearly all actives have a fitted effect of over 60% in size", "conditions": "ATP luminescence, 8 min; series mostly up to 38.3 µM; activity change, negative = inhibition: at the top concentration", "outline": "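Recombinant Kinase-Glo luciferase, 10 uM ATP (linear range), luciferin; imidazole pH 7.2 / KCl / MgCl2 / Tween / BSA buffer; 8 min RT; luminescence.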", "values": [
      {"smiles": "CCc1ccc(C2=NN(C(C)=O)C(c3ccco3)C2)cc1", "note": "(stereo unspecified)", "Potency": "inconclusive: 11.2 µM [inhibitor, partial curve]"},
      {"smiles": "COc1ccc2nc(/N=C/c3c(C)[nH]n(-c4ccc(C)cc4)c3=O)sc2c1", "Potency": "active: 10 µM"},
      {"smiles": "Cc1ccc(NC(=O)CN2CCc3ccccc3C2)cc1S(=O)(=O)N(C)C", "activity change, negative = inhibition": "inactive: 3%"},
      {"smiles": "COc1ccccc1S(=O)(=O)c1ccccc1[N+](=O)[O-]", "activity change, negative = inhibition": "inactive: -4.94%"},
      {"smiles": "CC(C)(C)c1ccc(COc2ccsc2C(=O)O)cc1", "activity change, negative = inhibition": "inactive: 0.113%"},
      {"smiles": "CCNC(=S)NNC(=O)c1cc(-c2cccc(OC)c2)nc2ccccc12", "Potency": "inconclusive: 10 µM [inhibitor, partial curve]"},
      {"smiles": "Cc1cccc(NC(=O)c2ccoc2C)n1", "Potency": "inconclusive: 10 µM [inhibitor, single point]"},
      {"smiles": "Cc1ccsc1/C=N/Nc1ncnc2nc[nH]c12", "Potency": "inconclusive: 11.2 µM [inhibitor, partial curve]"},
      {"smiles": "NC(=O)C1CCN(C2=C(Cl)C(=O)c3ccccc3C2=O)CC1", "Potency": "inconclusive: 11.2 µM [inhibitor, partial curve]"},
      {"smiles": "Cc1ccc(-c2cc(N)n(-c3ccccc3)n2)cc1", "Potency": "inconclusive: 10 µM [inhibitor, partial curve]"},
      {"smiles": "Cc1ccccc1-c1nc(-c2ccccn2)no1", "Potency": "active: 6.31 µM"},
      {"smiles": "O=C(Nc1nc2ccccc2[nH]1)c1ccc(F)cc1", "Potency": "inconclusive: 10 µM [inhibitor, partial curve]"},
      {"smiles": "CCCN1C(=O)/C(=C\\C=C2/Sc3ccccc3N2CCO)SC1=S", "Potency": "inconclusive: 7.94 µM [inhibitor, partial curve]"},
      {"smiles": "O=C1C(Nc2ccccc2)=C/C(=N/S(=O)(=O)c2cccs2)c2ccccc21", "Potency": "inconclusive: 11.2 µM [inhibitor, partial curve]"},
      {"smiles": "CCOc1ccc(-c2cc(C(=O)Nc3ccc4c(c3)OCCO4)c3ccccc3n2)cc1", "Potency": "inconclusive: 10 µM [inhibitor, partial curve]"},
      {"smiles": "Cc1cc(C)c(NC(=O)c2sc3nc4c(cc3c2N)C(=O)CC(C)(C)C4)c(C)c1", "activity change, negative = inhibition": "inactive: -3.57%"},
      {"smiles": "Cc1cc(NC(=O)c2ccccc2)sc1C", "Potency": "active: 11.2 µM"},
      {"smiles": "O=C1NC(=S)S/C1=C\\c1coc2ccccc2c1=O", "activity change, negative = inhibition": "inactive: -1.7%"},
      {"smiles": "COc1ccc(NC(=O)c2cc([N+](=O)[O-])ccc2O)cc1", "Potency": "active: 7.94 µM"},
      {"smiles": "COc1cnc(-c2ccccn2)nc1Oc1ccc(Cl)c2ccccc12", "activity change, negative = inhibition": "inactive: -2.84%"},
      {"smiles": "Cc1ccc2nc(-c3cccc(N)c3)[nH]c2c1", "Potency": "active: 10 µM"},
      {"smiles": "Cc1nc2ccccc2n1CCc1ccccc1", "activity change, negative = inhibition": "inactive: -0.889%"},
      {"smiles": "COc1ccc2oc(-c3ccc(O)cc3)cc(=O)c2c1", "Potency": "inconclusive: 15.8 µM [inhibitor, partial curve]"},
      {"smiles": "COc1ccc(OC)c(N=c2oc3cc(O)ccc3cc2C(N)=O)c1", "Potency": "inconclusive: 22.4 µM [inhibitor, single point]"},
      {"smiles": "Cc1ccc(C(=O)Nc2sc3c(c2C(=O)O)CCCCC3)o1", "Potency": "active: 7.94 µM"},
      {"smiles": "NC(=O)c1csc(-c2ccc(CO)o2)n1", "activity change, negative = inhibition": "inactive: -12.7% [at 7.66 µM]"},
      {"smiles": "Brc1ccc(-c2cn3ccccc3n2)s1", "Potency": "inconclusive: 11.2 µM [inhibitor, single point]"},
      {"smiles": "c1cncc(-c2nc3cc4ccccc4cc3[nH]2)c1", "Potency": "inconclusive: 11.2 µM [inhibitor, partial curve]"},
      {"smiles": "O=C(Nc1cccc(O)c1)c1noc2c1CCCCC2", "Potency": "inconclusive: 10 µM [inhibitor, single point]"},
      {"smiles": "Cc1nc2nc(-c3cccnc3)nn2c(C)c1Cl", "Potency": "inconclusive: 10 µM [inhibitor, single point]"},
      {"smiles": "Cc1cc(C(=O)Nc2ccccn2)cs1", "Potency": "inconclusive: 10 µM [inhibitor, single point]"},
      {"smiles": "COC(=O)CC1C(=O)NCCN1C(=O)CSc1nnc(Nc2ccc(OC)cc2)s1", "note": "(stereo unspecified)", "Potency": "inconclusive: 10 µM [inhibitor, single point]"},
      {"smiles": "Cc1cc(C(=O)Nc2ccc3c(c2)OCO3)cs1", "Potency": "inconclusive: 11.2 µM [inhibitor, single point]"},
      {"smiles": "COc1ccc(-c2cc(C(=O)Nc3ccccc3)on2)cc1", "Potency": "inconclusive: 10 µM [inhibitor, single point]"},
      {"smiles": "CN(Cc1cnn(C)c1)C(=O)c1sc2cccc(Cl)c2c1Cl", "activity change, negative = inhibition": "inactive: -3.05%"},
      {"smiles": "COc1ccc(/C=N/N=C(\\N)c2nonc2N)cc1", "Potency": "active: 10 µM"},
      {"smiles": "Nc1ccc(-c2nc3ccc(N)cc3o2)cc1", "Potency": "inconclusive: 12.6 µM [inhibitor, single point]"},
      {"smiles": "Clc1cccc(-c2nc(-c3ccccn3)no2)c1", "Potency": "inconclusive: 11.2 µM [inhibitor, partial curve]"},
      {"smiles": "Nc1nc2ccccc2n1C(=O)c1ccco1", "Potency": "inconclusive: 11.2 µM [inhibitor, partial curve]"},
      {"smiles": "COc1cc(/C=N/N2CCOCC2)ccc1OC(=O)c1ccco1", "Potency": "inconclusive: 10 µM [inhibitor, partial curve]"},
      {"smiles": "COc1ccc(Nc2cnn(-c3nc4ccccc4s3)c(=O)c2Cl)cc1", "Potency": "inconclusive: 11.2 µM [inhibitor, single point]"},
      {"smiles": "O=C(Nc1ccc2c(c1)nc1n2CCSC1)c1ccccc1", "Potency": "inconclusive: 11.2 µM [inhibitor, single point]"},
      {"smiles": "S=C1NC2=C(CCCC2=C2SCCS2)C(c2ccccc2)N1", "note": "(stereo unspecified)", "activity change, negative = inhibition": "inactive: -1.28%"},
      {"smiles": "COc1cccc(N2C(C(C)=O)=NN(c3ccccc3)C2c2ccc(N3CCOCC3)cc2)c1", "note": "(stereo unspecified)", "activity change, negative = inhibition": "inactive: -6.7%"},
      {"smiles": "Cc1c([N+](=O)[O-])c(C(=O)Nc2ccc3c(c2)OCCO3)nn1C", "Potency": "active: 12.6 µM"},
      {"smiles": "Nc1[nH]c(N=NC(=O)c2ccc(F)cc2)c2ccccc12", "Potency": "inconclusive: 15.8 µM [inhibitor, partial curve]"},
      {"smiles": "Cn1ccnc1SCC(=O)c1ccc(Br)cc1", "Potency": "inconclusive: 11.2 µM [inhibitor, single point]"},
      {"smiles": "Oc1ccc(/C=N/NC(=S)N/N=C/c2ccc(O)cc2)cc1", "Potency": "active: 4.47 µM"},
      {"smiles": "Oc1ccc(/C=N/NC(=S)N2CCOCC2)cc1", "Potency": "inconclusive: 11.2 µM [inhibitor, single point]"},
      {"smiles": "COc1ccccc1N1CCN(c2ccc(-c3ccccc3)nn2)CC1", "Potency": "active: 8.91 µM"},
      {"smiles": "CC(C)CNC(=O)c1cccc(C(=O)NCC(C)C)c1", "activity change, negative = inhibition": "inactive: -0.286%"},
      {"smiles": "Cc1cccc(/C(N)=N/OC(=O)N2CCOCC2)c1", "Potency": "inconclusive: 10 µM [inhibitor, partial curve]"},
      {"smiles": "Fc1ccccc1-c1ccc(/C=N/Nc2nc3ccccc3[nH]2)o1", "Potency": "inconclusive: 11.2 µM [inhibitor, partial curve]"},
      {"smiles": "CC1CCc2nc(NC(=O)C3CC3)sc2C1", "note": "(stereo unspecified)", "activity change, negative = inhibition": "inactive: -6.43%"},
      {"smiles": "CN(C)c1ccc(C(=O)n2nnc3ccccc32)cc1", "Potency": "inconclusive: 11.2 µM [inhibitor, partial curve]"},
      {"smiles": "Cn1c(/N=C/c2cccs2)nc2ccccc21", "Potency": "inconclusive: 10 µM [inhibitor, partial curve]"},
      {"smiles": "CC(C)(C)NS(=O)(=O)c1ccc2nc(NC(=O)c3ccc(N4C(=O)CCC4=O)cc3)sc2c1", "activity change, negative = inhibition": "inactive: -2.13%"},
      {"smiles": "CN1Cc2cc(C(=O)c3cc(Cl)cc(CSc4ncccn4)c3O)cnc2NC1=O", "activity change, negative = inhibition": "inactive: -2.2%"},
      {"smiles": "C/C(=N\\NC(=O)c1csc(C)c1C)c1ccco1", "Potency": "inconclusive: 11.2 µM [inhibitor, single point]"},
      {"smiles": "Fc1ccc(Nc2ccc3ccccc3n2)c(F)c1", "Potency": "inconclusive: 10 µM [inhibitor, partial curve]"},
      {"smiles": "c1ccc(-c2nnc(CN3CCCc4ccccc43)o2)cc1", "activity change, negative = inhibition": "inactive: -0.0398%"},
      {"smiles": "c1ccc(C2=NNC(=NC3CC3)SC2)cc1", "Potency": "active: 4.47 µM"},
      {"smiles": "CCCn1c(C)cc(C(=O)COC(=O)c2ccc[nH]c2=O)c1C", "Potency": "inconclusive: 10 µM [inhibitor, partial curve]"},
      {"smiles": "COc1cccc(C(=O)N=c2sc3c(C)ccc(OC)c3n2C)c1", "Potency": "inconclusive: 2.24 µM [inhibitor, full curve]"},
      {"smiles": "Cc1ccc(/C=N/c2sc3c(c2C#N)CCCCC3)o1", "Potency": "inconclusive: 10 µM [inhibitor, partial curve]"},
      {"smiles": "CC(C)(C)N=C1C([N+](=O)[O-])=CC=C2C1=NC1(CCCCC1)N2O", "Potency": "inconclusive: 14.1 µM [inhibitor, partial curve]"},
      {"smiles": "Cc1ccnc(SCC(=O)c2cccc([N+](=O)[O-])c2)n1", "activity change, negative = inhibition": "inactive: 2.21%"},
      {"smiles": "O=C(N/N=C/c1ccco1)c1cc(C2CC2)nc2ccccc12", "activity change, negative = inhibition": "inactive: 2.41%"},
      {"smiles": "COc1cccc(NC(=O)/C=C\\c2ccc(Cl)cc2)c1", "Potency": "inconclusive: 12.6 µM [inhibitor, partial curve]"},
      {"smiles": "COc1ccc2c(=O)c(-c3ccc4c(c3)OCO4)coc2c1", "Potency": "inconclusive: 11.2 µM [inhibitor, single point] and inconclusive: 11.2 µM [inhibitor, partial curve]"},
      {"smiles": "Cc1cc(C(=O)Nc2nc3c(s2)CCCC3)cs1", "Potency": "inconclusive: 10 µM [inhibitor, single point]"},
      {"smiles": "O=S(=O)(c1ccc(Br)s1)N1CCCCC1", "activity change, negative = inhibition": "inactive: 0.974%"},
      {"smiles": "COc1ccc(OCC(=O)Nc2nccs2)cc1", "Potency": "active: 10 µM"},
      {"smiles": "Cc1nonc1C(=O)N/N=C/c1cccc(O)c1", "Potency": "active: 8.91 µM"},
      {"smiles": "COc1ccc(-c2nc3c(n2O)CCC/C3=N\\O)cc1", "Potency": "inconclusive: 12.6 µM [inhibitor, single point]"},
      {"smiles": "O=C(Nc1ccccc1C(=O)N/N=C/c1ccco1)c1ccc(Cl)cc1", "Potency": "active: 12.6 µM"},
      {"smiles": "COc1ccc(-c2nnc(-c3cc4ccccc4oc3=O)o2)cc1", "activity change, negative = inhibition": "inactive: 3.71%"},
      {"smiles": "O=C(/C=C/Nc1ccc(F)cc1F)c1cccs1", "Potency": "active: 7.94 µM"},
      {"smiles": "Fc1cc(F)c2nc(N3CCCCC3)sc2c1", "Potency": "inconclusive: 28.2 µM [inhibitor, single point]"},
      {"smiles": "Oc1ccc(-c2nccc(-c3ccc(Cl)cc3Cl)n2)cc1", "activity change, negative = inhibition": "inactive: -2.98%"},
      {"smiles": "Cc1ccc(C(=O)/C=C/c2ccc(F)cc2)o1", "activity change, negative = inhibition": "inactive: -9.4%"}
    ]}
  ]
}
